# Results from patent publication US20260116938A1 (RELINIA, published 2026).
# T1: huTNFR2-Fc (human, UniProt P20333 23-257)
# T1 construct: Coated on ELISA wells; also called hTNFR2-Fc
# T1 sequence (looked up): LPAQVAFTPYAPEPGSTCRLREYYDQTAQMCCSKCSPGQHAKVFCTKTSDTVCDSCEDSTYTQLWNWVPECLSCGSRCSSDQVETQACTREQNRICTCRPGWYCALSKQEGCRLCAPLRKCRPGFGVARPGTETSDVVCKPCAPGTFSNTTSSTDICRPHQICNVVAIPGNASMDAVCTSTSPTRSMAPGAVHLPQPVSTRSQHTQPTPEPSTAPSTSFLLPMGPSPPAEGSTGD
# B1: SEQ ID NO: 101 (Fc fusion)
# chain: [about 400 residues with a human IgG4 Fc not written out]GGGGSSSRTPSDKPVAHVVANPQAEGQLQWLNRRANALLANGVELRDNQLVVPSEGLYLIYSQVLFKGQGCPSTHVLLTHTISRIAVSYQTKVNLLSAIKSPCQRETPEGAEAKPWYEPIYLGGVFQLEKGDRLSAEINRPDYLNFRESGQVYFGIIALGGGGSSSRTPSDKPVAHVVANPQAEGQLQWLNRRANALLANGVELRDNQLVVPSEGLYLIYSQVLFKGQGCPSTHVLLTHTISRIAVSYQTKVNLLSAIKSPCQRETPEGAEAKPWYEPIYLGGVFQLEKGDRLSAEINRPDYLNFRESGQVYFGIIAL
# notes: also called Fc-scTNFR2
# B2: SEQ ID NO: 113 (other)
# chain: [about 400 residues with a human IgG1 Fc not written out]GGGGSSSRTPSDKPVAHVVANPQAEGQLQWLNRRANALLANGVELRDNQLVVPSEGLYLIYSQVLFKGQGCPSTHVLLTHTISRIAVSYQTKVNLLSAIKSPCQRETPEGAEAKPWYEPIYLGGVFQLEKGDRLSAEINRPDYLNFRESGQVYFGIIALGGGGSSSRTPSDKPVAHVVANPQAEGQLQWLNRRANALLANGVELRDNQLVVPSEGLYLIYSQVLFKGQGCPSTHVLLTHTISRIAVSYQTKVNLLSAIKSPCQRETPEGAEAKPWYEPIYLGGVFQLEKGDRLSAEINRPDYLNFRESGQVYFGIIAL
# B3: SEQ ID NO: 116 (other)
# chain: [about 150 residues not written out]GGGGSSSRTPSDKPVAHVVANPQAEGQLQWLNRRANALLANGVELRDNQLVVPSEGLYLIYSQVLFKGQGCPSTHVLLTHTISRIAVSYQTKVNLLSAIKSPCQRETPEGAEAKPWYEPIYLGGVFQLEKGDRLSAEINRPDYLNFRESGQVYFGIIALGGGGSSSRTPSDKPVAHVVANPQAEGQLQWLNRRANALLANGVELRDNQLVVPSEGLYLIYSQVLFKGQGCPSTHVLLTHTISRIAVSYQTKVNLLSAIKSPCQRETPEGAEAKPWYEPIYLGGVFQLEKGDRLSAEINRPDYLNFRESGQVYFGIIALGGGGSERKSSVECPPCPAPPVAGPSVFLFPPKPKDTLMISRTPEVTCVVVDVSHEDPEVQFNWYVDGVEVHNAKTKPREEQFNSTFRVVSVLTVVHQDWLNGKEYKCKVSNKGLPASIEKTISKTKGQPREPQVYTLPPSREEMTKNQVSLTCLVKGFYPSDIAVEWESNGQPENNYKTTPPMLDSDGSFFLYSKLTVDKSRWQQGNVFSCSVMHEALHNHYTQKSLSLSPGK
# B4: SEQ ID NO: 115 (other)
# chain: [about 150 residues not written out]GGGGSSSRTPSDKPVAHVVANPQAEGQLQWLNRRANALLANGVELRDNQLVVPSEGLYLIYSQVLFKGQGCPSTHVLLTHTISRIAVSYQTKVNLLSAIKSPCQRETPEGAEAKPWYEPIYLGGVFQLEKGDRLSAEINRPDYLNFRESGQVYFGIIALGGGGSSSRTPSDKPVAHVVANPQAEGQLQWLNRRANALLANGVELRDNQLVVPSEGLYLIYSQVLFKGQGCPSTHVLLTHTISRIAVSYQTKVNLLSAIKSPCQRETPEGAEAKPWYEPIYLGGVFQLEKGDRLSAEINRPDYLNFRESGQVYFGIIALGGGGS[human IgG1 Fc with C220S L234A L235A P331S (EU numbers) not written out]
# Target: T1, huTNFR2-Fc
# Experiment: ELISA, coated hTNFR2-Fc, detection with anti-TNF alpha mAb F6C5
row,Kd [pM],Binder
1,440,B1
2,210,B2
3,300,B3
4,280,B4
